Sequences with one replicate were seen in a single cluster, so their values are uncertain.
System: ATP
Experiment: switch fluorescence ratio, 500 uM ATP over buffer (Cy3 cluster intensity, sum of 5 cycles each) (fold (ratio)); higher = stronger signal-on switching upon ATP binding; sequences stand for … in TCGTCGGCAGCGTCAGATGTGTATAAGAGACAGTTTTTTTTTTTTTTTTTTTTTTTTT…TC
Details: aptamer strand: ATP DNA aptamer (quencher-CACCTGGGGGAGTATTGCGGAGGAAGG + anchor), 100 nM annealed; ATP concentration: 500 uM; one replicate
Procedure, shortened: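 Values give the fluorescence ratio for each switch-domain sequence, averaged from per-cluster ratios of summed target-cycle to summed buffer-cycle Cy3 intensity. The Cy3-labelled switching-strand clusters sat on a modified Illumina MiSeq flow-cell, were annealed to 100 nM quencher-labelled ATP aptamer, and were imaged in selection buffer, then after 15 min with 500 uM ATP at 22 °C. Five cycles ran with NaOH stripping and re-annealing between them, and clusters outside 100-1000 RFU were excluded.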
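Also: ATP exposure 15 min at 22 °C before imaging.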

| Sequence | switch fluorescence ratio |
| --- | --- |
| ATGGTGCATT | 1.06 |
| CACCCCGGGC | 1.1 |
| TGTGTGGACA | 0.957 |
| TTTCCCGCC | 1.25 |
| CAAAAACTGT | 0.998 |
| TTGATGGAAT | 1.24 |
| AACGTGGTTA | 1 |
| TGGCTCATAG | 1.03 |
| TGACTGGCGG | 1.04 |
| TATGTATAAG | 0.962 |
| GATGATTGTT | 1 |
| TTGTTTGGG | 0.97 |
| GCATATACAA | 1.08 |
| TTCAATTCCT | 1.04 |
| TTATTTGAAA | 1.01 |
| GCGCCAGTAG | 1.03 |
| TTTGACCTT | 1.27 |
| ACTGAACGCC | 1.39 |
| GATAAACGGT | 0.992 |
| TAGGAGTTCA | 0.994 |
| TTGTCCTGCA | 1.04 |
| CCTAGGAACG | 0.991 |
| CCCCGTGTGG | 1.13 |
| ATCGTTGTTA | 0.997 |
| CTTAAAATCC | 1.01 |
| TGCCCCGTGG | 1.27 |

| Sequence | switch fluorescence ratio |
| --- | --- |
| TGTCTGCAAA | 1.07 |
| AATTTTGGGG | 0.985 |
| ATTCGGATTC | 1.01 |
| TAATAGGTC | 1.05 |
| GGCTCGTACG | 0.969 |
| GGTGGGTTTA | 1.09 |
| GAACGATTT | 1 |
| GACTTCAGT | 0.994 |
| TCAGCAAGCA | 1.6 |
| CTGCCCCTGC | 1.01 |
| AGGAGCGAGT | 0.964 |
| CTTAGGTACG | 1.01 |
| TCATCATGGG | 1 |
| AGTTTAGGAA | 1.02 |
| GGGGTTAACC | 1.01 |
| GTCTTAAATA | 1 |
| TATGGGATGA | 1.04 |
| TTGTTGGACG | 0.969 |
| TGGGTGTCCT | 0.967 |
| ACCTGATACT | 1.09 |
| CAGGGGGTGG | 1.04 |
| CAGAAGGCAA | 3.52 |
| TGGAGTCTAA | 1.12 |
| AGCTGGCTCG | 0.966 |
| GGTCATGACA | 0.998 |
| TCAGTTTGCA | 0.976 |

| Sequence | switch fluorescence ratio |
| --- | --- |
| ATGCTTAATA | 0.998 |
| AAGTCCACCA | 1.04 |
| ACTTGTGTCC | 0.997 |
| TGGGACGGAC | 1.01 |
| TAGGGCGTC | 0.975 |
| GGATCCAGCG | 1.01 |
| TCCAAAACTA | 1.06 |
| ACATATTCTT | 1.04 |
| GCACGCACCC | 1.53 |
| GCTGATTAAC | 1.03 |
| CCACGGTTAT | 1.2 |
| TAGGTGTGCT | 1.03 |
| TATCAAC | 0.96 |
| GATAGTTCAT | 0.991 |
| AGCTAGGGAG | 0.977 |
| CCCATCGTCT | 1.05 |
| ATTCTCATG | 1.02 |
| ATGCAGGTTC | 1.03 |
| GCAGAATAGC | 1.01 |
| AAGCATGAGA | 1.03 |
| GGTGTTCGAC | 1.01 |
| TGTTTTCATA | 1.02 |
| AAGGTGGGGC | 1.04 |
| GAACTATCTG | 0.985 |
| GAAAATTTCG | 1.06 |

— the supplement of paper PMC10126150
